Measured values published in paper PMC12136788.
Changes are numbered by the printed parent chain. The list shows a part of the results.

T1: UNK ZnF1-3 (human, UniProt Q9C0B0 31-174)
T1 sequence: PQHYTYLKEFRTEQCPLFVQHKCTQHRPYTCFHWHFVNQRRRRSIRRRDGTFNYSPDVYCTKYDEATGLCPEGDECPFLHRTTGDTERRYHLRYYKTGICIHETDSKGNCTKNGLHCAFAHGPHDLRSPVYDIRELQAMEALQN

B1: chr9:95013113:95013114:-_ENSG00000196305_ENST00000443024|hu_hu|hu_hu_hu_mus_False|48_78 (ssRNA)
RNA: GGGAGUUCUACAGUCCGACGAUCCUCAGUCAGAAAGGGCGUGUAAGGGGCCAUCAGUCUGCAAAGAGAAAGCAGGACACUGAACAGGGUUUCUAGGGCCAUGACACAGUCUUCCACCCCACUCUCACCCUUUAACCUCCUCCUCAACAGAGGAUUGAGCAUCA
B2: 49434091_49434211_7401_CDS_ENSG00000167548_ENST00000301067|human|control|control (ssRNA)
RNA: GGGAGUUCUACAGUCCGACGAUCAGUGUGGGCUAGAGACCCAGCCUUAAAGGCAACUUCAGGGGGCUGGGGUCGGGGUGGCUUAUGCAAUGGGGCAAAUGGGUCACGGGACUGAGGGCGUGAGGGUGGGCGAGAAUAAGGGUCCAACAGAGGAUUGAGCAUCA
B3: chr2:168010559:168010560:-_ENSMUSG00000051149_ENSMUST00000088001|perfect_dup|motif|central (ssRNA)
RNA: GGGAGUUCUACAGUCCGACGAUCUUCCAAAGUCUUUUUGUCUGCAUUGAAGGUACAGUAGGGGCAAUUAAGGAGAAUCCGGUUUUCAAAGUCUUCACUAUGGACAUUGCGGAAAUGACUUUUGUAGGCAGAGAAGAAUUUUGACAACAGAGGAUUGAGCAUCA
B4: chr14:103542484:103542485:-_ENSMUSG00000033004_ENSMUST00000161008|mus_hu|FALSE|FALSE (ssRNA)
RNA: GGGAGUUCUACAGUCCGACGAUCUUUGACAAAAUAUUGUUAAUGUGAUGAAAGACGUUGCUCUGAUGAAGGAACUGGUGAUCAGAUUGCUUGAAUUUGAGACUCCAGCACCUCAGGGCCAUUUGCUGUAAUGAACUGCCGCUGCAACAGAGGAUUGAGCAUCA
B5: chr1:95367794:95367795:-_ENSG00000117519_ENST00000538964|hu_mus|FALSE|FALSE (ssRNA)
RNA: GGGAGUUCUACAGUCCGACGAUCGUUUGCUUCAAAUAUAUCAUGGGGCUUCAUACCGUAAGCCUGGAUAGCUUUAAUGAAGUUGCCGAUAUUCUCCAACUGGGGCCAAUUUAGUGAGGAUUCGUUGACUUUCUUCACAGAGCCCAACAGAGGAUUGAGCAUCA
B6: chr7:135612270:135612271:-_ENSG00000105887_ENST00000393085|hu_mus|hu_hu_hu_mus_False|1_78 (ssRNA)
RNA: GGGAGUUCUACAGUCCGACGAUCGUUUUUUUCUGAGAUGUUAAAUAGUACUUCAGUAACAAAACUUACUUAACCUUUUAUUAAUGCGUGUUGUACCAAAAGCAGACAUUUUAGCUUCAUUUAUUCAAAAAUAUUAAGAACAUUCAACAGAGGAUUGAGCAUCA
B7: 44997657_44997777_1630_CDS_ENSMUSG00000038518_ENSMUST00000173246|mouse|control|control (ssRNA)
RNA: GGGAGUUCUACAGUCCGACGAUCGUUGGGUUUGGUUUCCUUGACCAGUUCUCUCUUGGCUUUGGUGUAUGUGACAGUCCCCUUGGUCACUGUGGCAGUGUACUUCACAGUUUUGGAUGGUGAAGGUCUGACUUCUCGGAUCUUCAACAGAGGAUUGAGCAUCA
B8: 72865189_72865309_3846_CDS_ENSG00000009954_ENST00000339594|human|control|control (ssRNA)
RNA: GGGAGUUCUACAGUCCGACGAUCAACUUUGCACCUAGCAUUUUCUGCGGACAUAUCCCACUUGAUACAGGCAUCAAGCAUCCCAAGCAGCACGUGCAUCCUGGAGAAAGUCUGAGCUUCCCGGAUUGCUGUCUUCCAUUUCUCCAACAGAGGAUUGAGCAUCA
B9: chr3:41277855:41277856:+_ENSG00000168036_ENST00000349496|hu_hu|motif|central (ssRNA)
RNA: GGGAGUUCUACAGUCCGACGAUCUUCAAUAGCUUCUGCAGCUUCCUUGUCCUGAGCAAGUUCACAGAGGACCCCUGCAGCGGCUCUUUGGAUGUUUUCAAUGGGAGAAUAAAGCAGCUGCACAAACAAUGGAAUGGUAUUUAGCAACAGAGGAUUGAGCAUCA
B10: chr11:110355629:110355630:+_ENSMUSG00000020623_ENSMUST00000020949|mus_hu|FALSE|FALSE (ssRNA)
RNA: GGGAGUUCUACAGUCCGACGAUCGUGAAUGACAGACAGCUUACUAUGUAAAUGUUCUAAUGCUUUUACAAUAGAAACUGCUAUUUUCCCUAAGAUGUCCUCUGGAAUUGUCUGGCCUUUAUCAAUAACUUGUUUGUAGAAUUUCAACAGAGGAUUGAGCAUCA
B11: 118483815_118484459_965_3pUTR_ENSG00000065183_ENST00000349139|human|control|control (ssRNA)
RNA: GGGAGUUCUACAGUCCGACGAUCUCUAGCUUUCUUCAUCUUCUUAUCCAUUUUCUUCUGAAUUUCCUUUUUGGAAAGGAUACAAAACAAUUCUAGCACAGAGUCAGUUCCAUGGCAAGCAAGAAUCCUGCCUGUCUUGUCGACCAACAGAGGAUUGAGCAUCA
B12: chr2:216981417:216981418:+_ENSG00000079246_ENST00000392132|hu_hu|hu_hu_hu_mus_True|28_48 (ssRNA)
RNA: GGGAGUUCUACAGUCCGACGAUCCUGAUACUGGUCCUUGCCAGCAAGGGCAUUAUCAGUGCCAUCUGUGCCAUAGAGGACUAACGCAAUCUCAUCCUUGCUCUCCGCAAACACCUGUCGUUGGACAAACAUAGUCAUCACUUUCAACAGAGGAUUGAGCAUCA
B13: chr9:95013113:95013114:-_ENSG00000196305_ENST00000443024|hu_hu|hu_hu_hu_mus_False|8_108 (ssRNA)
RNA: B1 RNA with C30G, G36A, A63C, G87U, U90C, U93C, G96A, C135U
B14: chr12:39763582:39763583:-_ENSG00000139116_ENST00000544797|hu_mus|hu_hu_hu_mus_False|1_8 (ssRNA)
RNA: GGGAGUUCUACAGUCCGACGAUCCUCUAGGAACUGGGCAUUCACUUUGAAUUCAGGAGGGGGCAGCCCGUUUUUAAUCGCUGAGGUCUUUUUCUCAUCAAUACUCUUGAACAGGUGUCUAACAGCACGAGAAAUAAUACCCAGCAACAGAGGAUUGAGCAUCA
B15: chr3:119450855:119450856:-_ENSMUSG00000028134_ENSMUST00000029780|mus_hu|mus_mus_mus_hu_False|58_78 (ssRNA)
RNA: GGGAGUUCUACAGUCCGACGAUCUGUGGUGCCACUAAGAGGAGUAUUUGCUGUCUGGACCGCUGUCACAGCUUGAAGAACUACUUGAGCACGUUGGUUUAAUGUAUUAUCUGUCUUUAGUUCUUUGUGAUUCGAGUACUGGAUCAACAGAGGAUUGAGCAUCA
B16: chr14:53325254:53325255:-_ENSG00000073712_ENST00000341590|hu_hu|motif|central (ssRNA)
RNA: GGGAGUUCUACAGUCCGACGAUCAACCACUUUGCAAUCUACUUCAGUACAAAUGAAGGACAAUCGUACUUCAUCUGCAAACUCGGCGGUGACCAUUUUGAUUUCCCAGUUGACAUUCCACUGUUUCAUGUUGCUGAAACGCCACAACAGAGGAUUGAGCAUCA
B17: chr7:135832511:135832512:+_ENSMUSG00000042105_ENSMUST00000118605|mus_mus|motif|central (ssRNA)
RNA: GGGAGUUCUACAGUCCGACGAUCAUCCUGCCUAUUCUAGAGUUAGUAUUUACAUCAGUCAAAAACAUUAUGUCCUUAUCGGAAAGCAUUUGGCACAAAACAAGCGGUCGAGUGUUGUCGGCCUUUUUCCCCCUCCCACCCCAUCAACAGAGGAUUGAGCAUCA
B18: chr4:95690885:95690886:+_ENSMUSG00000028572_ENSMUST00000156910|mus_mus|mus_mus_mus_hu_False|8_98 (ssRNA)
RNA: GGGAGUUCUACAGUCCGACGAUCUUUAGAAAAUGUUAAUGUUAAAUCUAAAAUAUUUUCAAAGGCUUAUUUUAUUUUACCAGAAGUCACAGGCAAGCAGACACUACAAGAAUAUAUGAAAAUGAAACAACAGUGUAUAACUGUCAACAGAGGAUUGAGCAUCA
B19: 16769249_16779710_1388_3pUTR_ENSG00000145555_ENST00000513610|human|control|control (ssRNA)
RNA: GGGAGUUCUACAGUCCGACGAUCAGCAAGCAGCCUCGACACUUCCCGAACUUCCUCCUUGCUGAACUGCAUCACGUCCAUUGCCGUAAUAACUUCCCUAAAGGAUUCCUGGUCACUGAUUGUCUUGUCUUCUACACAUCCAGACAACAGAGGAUUGAGCAUCA
B20: 156751024_156752551_1840_CDS_ENSG00000055163_ENST00000521420|human|control|control (ssRNA)
RNA: GGGAGUUCUACAGUCCGACGAUCUAACUCCAGGAAGAAUUCUCGGAACCAGAGCUGGGAGAGGUCACAACACUGCUGCAGGGCUUCACUGAUGUUGAGCAGAUGUGUGAAGAAGAAGGACUGUUUGUGAAAGUCCUCUAUGGCCAACAGAGGAUUGAGCAUCA
B21: 69965070_69965190_5251_ncRNA_ENSMUSG00000029208_ENSMUST00000154728|mouse|control|control (ssRNA)
RNA: GGGAGUUCUACAGUCCGACGAUCGAAGAGUUUACAGUCUCUUCUGAUGUACCAUUCAUUCCCUCUGCUCCAAAGGUCUUAAAAAAAGAUCUUUUUUUCAUUCUAUCCCUAAUGCUGUCUCACAGUGUCUCUCCUCAGCACUUCCAACAGAGGAUUGAGCAUCA
B22: chr6:38652254:38652255:-_ENSG00000124767_ENST00000373365|hu_hu|hu_hu_hu_mus_False|1_48 (ssRNA)
RNA: GGGAGUUCUACAGUCCGACGAUCCGAGAACUUCAUAGCAGGGAAGUCAAGCUUCUGCAGGAGGGUCAGUCCAAGAACCCUCGUAUAAAAAUCCAGUGACUUCUUAGGAUCCUUAAUUCUUAGCAUCGUUUGCUGCAAUAGAAACAACAGAGGAUUGAGCAUCA

Target: T1, UNK ZnF1-3
Experiment: nsRBNS (natural sequence RNA bind-n-seq); RBNS binding buffer (assumed for nsRBNS): 25 mM Tris pH 7.5, 150 mM KCl, 3 mM MgCl2, 0.01% Triton X-100, 500 ug/ml BSA, 20 U/ml SUPERase-In, 4 C; UNK is unkempt and MSI1 is Musashi-1; names of the RNAs are library labels; protein concentration not given here; high values mean tight binding

Row | Binder | binding signal
1 | B1 | 0.742 enrichment R
2 | B2 | 2.33 enrichment R
3 | B3 | 1.29 enrichment R
4 | B4 | 0.954 enrichment R
5 | B5 | 0.659 enrichment R
6 | B6 | 0.716 enrichment R
7 | B7 | 0.301 enrichment R
8 | B8 | 1.08 enrichment R
9 | B9 | 1.25 enrichment R
10 | B10 | 0.773 enrichment R
11 | B11 | 0.814 enrichment R
12 | B12 | 0.797 enrichment R
13 | B13 | 1.34 enrichment R
14 | B14 | 1.03 enrichment R
15 | B15 | 0.899 enrichment R
16 | B16 | 0.437 enrichment R
17 | B17 | 1.43 enrichment R
18 | B18 | 2.41 enrichment R
19 | B19 | 1.2 enrichment R
20 | B20 | 1.32 enrichment R
21 | B21 | 0.76 enrichment R
22 | B22 | 0.834 enrichment R
